# Data taken from PubChem BioAssay AID686978 (National Center for Advancing Translational Sciences (NCATS), 2013).
# Screen size: about 420,000 compounds; about 64,000 (15%) were called active. Inconclusive results, whose numbers are uncertain, are shown with a selection of clear calls. Calls come from the whole dose curve; as a rule, active = well fitted inhibition curve with a large enough effect; inconclusive = small, poorly fitted or top-dose-only effect; inactive = flat fitted curve, though single readings scatter. Potencies of inconclusive entries are left out as doubtful fits.
# Experiment: qHTS for Inhibitors of human tyrosyl-DNA phosphodiesterase 1 (TDP1): qHTS in cells in absence of CPT; note: nearly all actives have a fitted effect of over 55% in size
# Details: DT40 Tdp1-/- hTDP1 cells, no CPT, ATP luminescence, 48 h; activity change, negative = growth inhibition: at 46.2 µM (top of the series)
# Procedure, shortened: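 Camptothecin absent (DMSO only). Human TDP1-complemented DT40 knockout cells, 400 cells/well, 37 °C for minimum 48 hr; ATP measured via CellTiter-Glo, 30 min dark incubation, luminescence.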
# % is set by controls: 0 for no effect and ±100 for the full control effect; potency is the fitted concentration of half-maximal effect; tags give direction and shape of the fitted curve.
SMILES,Potency,"activity change, negative = growth inhibition"
CC1=C(c2ccc(C)c(C)c2)S(=O)(=O)N=C1N1CCC(C(=O)N2CCC(C)CC2)CC1,active: 6.51 µM,
CCOC(=O)c1cnc2c(-c3ccccc3OC)c(C)nn2c1C,,inconclusive: -31.7% [inhibitor]
CC1(C(=O)NS(=O)(=O)c2cccc(Cl)c2)CCN1C(=O)CCc1ccc(Cl)cc1Cl (stereo unspecified),inactive,
Cc1ccc(-n2ncc3c(NCCCn4ccnc4)ncnc32)cc1Cl,"inconclusive [inhibitor, single point]",
CC(C)CC(COCc1cccc(Cl)c1)N1CCN(C(=O)c2ccc(C(F)(F)F)cc2)CCC1=O (stereo unspecified),active: 16.4 µM,
CCOc1ccccc1C(=O)N[C@H](C(=O)OCC(=O)Nc1nnc(-c2ccccc2)o1)C(C)C,inactive,
Cc1ccc2c(c1)N(C(=O)CCC(=O)NCCCN1CCOCC1)CC(C)O2 (stereo unspecified),inactive,
Cc1ccc(N2CCN(C(=O)c3cc(-c4ccc(F)cc4)[nH]c3C)CC2C)cc1 (stereo unspecified),active: 20.6 µM,
COc1ccc(CC(=O)NCC(c2ccc(N(C)C)cc2)N2CCOCC2)cc1 (stereo unspecified),"inconclusive [inhibitor, single point]",
CC(C)C(NC(=O)c1ccccc1NC(=O)c1ccccc1)C(=O)NCCCn1ccnc1 (stereo unspecified),inactive,
CC(C)=C[C@@H]1C[C@H](C)[C@H]2CC[C@H](C)c3c(O)c(O)c(C)c1c32,"inconclusive [inhibitor, single point]",
CCC[N+](CC#Cc1ccccc1)(CCC)CC(=O)c1ccc(Cl)cc1,active: 25.9 µM,
Nc1c(C(=O)N2CCCC2)sc2nc3c(cc12)CCCCCC3,"inconclusive [inhibitor, single point]",
Cc1cc(F)ccc1S(=O)(=O)Nc1ccc2c(c1)CCCN2C(=O)c1cccs1,active: 23.1 µM,
COC(=O)c1cnc(NCc2ccc(F)cc2)c2ccccc12,"inconclusive [inhibitor, partial curve]",
C[C@@H]1CCC2[C@](C)(CO)[C@@H](O)CC[C@]2(C)[C@@]12CCC(CO)(CCO)O2 (stereo partly specified),,inconclusive: -30.7% [inhibitor]
COc1ccc(NC(=O)COc2ccc(/C=C/c3cccc[n+]3C)cc2OC)cc1,inactive,
CCOC(=O)Cc1ccc(NC(=O)NCc2cccn2Cc2ccccc2)cc1,active: 20.6 µM,
O=C(NNC(=O)c1ccc(O)cc1O)c1ccc(-c2ccccc2)cc1,"inconclusive [inhibitor, single point]",
Cc1cccn2c(=O)c3cc(C(=O)NCCN4CCOCC4)c(=N)n(Cc4ccc(F)cc4)c3nc12,active: 7.31 µM,
COc1cccc(C2CC(c3cccs3)=NN2C(=O)CSc2nc3ccccc3s2)c1OC (stereo unspecified),active: 13 µM,
O=C1c2[nH]nc(-c3ccccc3O)c2C(c2ccccc2F)N1Cc1ccncc1 (stereo unspecified),"inconclusive [inhibitor, single point]",
NC(=O)COCCN1CCN(C(c2ccccc2)c2ccc(Cl)cc2)CC1 (stereo unspecified),"inconclusive [inhibitor, single point]",

SMILES,Potency,"activity change, negative = growth inhibition"
Cc1cc(C)c2[nH]c(=O)c(CN(CC3CCCO3)C(=S)Nc3ccccc3)cc2c1 (stereo unspecified),"inconclusive [inhibitor, single point]",
CN(c1ccccc1)S(=O)(=O)c1ccc(C(=O)NCc2ccccn2)cc1,"inconclusive [inhibitor, single point]",
CCN(CC)CCNc1nc(-c2ccco2)c2c(c1C#N)CC(C)(C)OC2,inactive,
CCOc1ccc(NC(=O)CSc2nnc(C)n2C2CC2)cc1S(=O)(=O)N1CCCC1,inactive,
CCOC(=O)c1ccn(S(=O)(=O)c2ccc(C)cc2)c1-c1ccccc1,"inconclusive [inhibitor, single point]",
N#CCCN(Cc1cccs1)C(=O)Nc1ccc(F)cc1,inactive,
CC(=O)n1c(C=Nc2ccccc2)c(O)c2ccccc21,"inconclusive [inhibitor, single point]",
COc1cccc(-n2cc3c(c2-c2ccccc2)c(=O)n(C)c(=O)n3C)c1,active: 11.6 µM,
CC1CCC(NC(=O)c2cc(S(=O)(=O)N3CCCCC3)ccc2N2CCOCC2)CC1 (stereo unspecified),"inconclusive [inhibitor, partial curve, poor fit]",
COc1cccc(Cn2c(=O)c(CCc3ccccc3)nc3cnc(N4CCN(C)CC4)nc32)c1,"inconclusive [inhibitor, single point]",
COc1cc(/C=N/n2nnnc2N)ccc1OCc1c(C)no[n+]1[O-],"inconclusive [inhibitor, single point]",
COc1ccc(CNc2ncncc2-c2ccccc2C(F)(F)F)c(OC)c1,"inconclusive [inhibitor, single point]",
CCc1nc2nc(C)cc(Nc3ccc(OC)cc3OC)n2n1,inactive,
O=C(NCCOCc1ccc(Cl)cc1)c1ncn[nH]1,inactive,
CCCn1cnc2c(c1=O)c1nc3ccccc3nc1n2CCc1ccccc1,"inconclusive [inhibitor, single point]",
Cc1ccc(NC(=O)CCCn2c(=O)[nH]c3ccsc3c2=O)cc1,inactive,
COc1ccc(-n2c(CCNC(=O)c3ccc(-c4cccc(F)c4)cc3)nnc2SC)cc1,"inconclusive [inhibitor, single point]",
Cc1cc(N2CCN(c3ccccc3)CC2)nc(NCc2ccccc2)n1,active: 16.4 µM,
CCC(Cc1ccccc1)NC(=O)Cn1ncc2c3ccccc3n(Cc3ccccc3)c2c1=O (stereo unspecified),active: 16.4 µM,
CNC(=O)CCCCC(=O)N/N=C/c1ccc(Cl)cc1Cl,inactive,
CCN1C(=O)[C@H]2[C@@H](c3ccc(-c4ccc(F)cc4)c(OC)c3)N3CCCC[C@@]3(C(=O)OC)[C@H]2C1=O,active: 16.4 µM,
COc1ccc(CNC(=O)CN(c2ccc(OC)c(Cl)c2)S(=O)(=O)c2ccc(C)cc2)cc1,"inconclusive [inhibitor, single point]",
NS(=O)(=O)c1ccc(CCNC(=O)CN2CCN(S(=O)(=O)c3ccccc3F)CC2)cc1,inactive,
